{"source": "paper PMC6919601", "about": "“Identification of Plasmodium dipeptidyl aminopeptidase allosteric inhibitors by high throughput screening” (PLoS ONE, 2019)", "note": "Hit rate of the full screen: of about 110,000 compounds, about 230 (0.21%) showed an effect of 50% or more. The list shows a part of the results.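 Further: 30 min substrate incubation versus DMSO and 10 µM JCP410 controls.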"}
{"biological_target": "DPAP1 (Plasmodium falciparum, UniProt Q8IIJ9)", "sequence (Q8IIJ9 whole entry, looked up)": "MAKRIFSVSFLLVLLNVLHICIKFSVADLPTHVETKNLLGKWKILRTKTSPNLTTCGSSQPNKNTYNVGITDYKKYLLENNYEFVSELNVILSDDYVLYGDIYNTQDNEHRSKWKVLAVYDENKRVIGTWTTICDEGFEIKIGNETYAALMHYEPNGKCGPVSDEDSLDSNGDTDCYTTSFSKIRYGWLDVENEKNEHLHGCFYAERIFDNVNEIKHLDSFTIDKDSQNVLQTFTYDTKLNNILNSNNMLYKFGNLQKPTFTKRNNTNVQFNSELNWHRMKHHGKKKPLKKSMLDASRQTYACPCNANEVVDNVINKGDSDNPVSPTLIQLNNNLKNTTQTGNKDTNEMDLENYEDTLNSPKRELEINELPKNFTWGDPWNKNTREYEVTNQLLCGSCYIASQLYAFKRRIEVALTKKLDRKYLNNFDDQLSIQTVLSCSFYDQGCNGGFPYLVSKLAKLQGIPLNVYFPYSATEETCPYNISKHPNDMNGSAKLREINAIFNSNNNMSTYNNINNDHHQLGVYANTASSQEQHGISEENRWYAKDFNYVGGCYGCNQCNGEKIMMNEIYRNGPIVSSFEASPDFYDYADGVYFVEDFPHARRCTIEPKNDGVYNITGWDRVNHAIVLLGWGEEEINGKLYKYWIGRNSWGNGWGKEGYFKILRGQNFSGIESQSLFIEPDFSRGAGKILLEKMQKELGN", "test": "primary screen, percent inhibition; read by cleavage of a fluorogenic dipeptide substrate; higher = more effect of the substance", "parameters": "species or system P. falciparum D10 trophozoite lysates; single well", "units": {"% Inhibition @ 10 uM": "%"}}
{"smiles": "Cc1onc(-c2c(F)cccc2Cl)c1C(=O)NCc1ccncc1", "% Inhibition @ 10 uM": -0.179}
{"smiles": "Cc1cccc(NC(=N)Nc2nc(C)cc(C)n2)c1", "% Inhibition @ 10 uM": -2.16}
{"smiles": "CCCCN1CN=C(Nc2nc3ccccc3o2)NC1", "% Inhibition @ 10 uM": -5}
{"smiles": "COc1ccc(C)cc1NC(=O)c1ccc([N+](=O)[O-])cc1", "% Inhibition @ 10 uM": 3.03}
{"smiles": "CC(C)Oc1ccc(/C=C/C(=O)Nc2noc3ccccc23)cc1", "% Inhibition @ 10 uM": 5.29}
{"smiles": "Cn1cnc([N+](=O)[O-])c1Sc1ncnc2[nH]cnc12", "% Inhibition @ 10 uM": -1.8}
{"smiles": "O=S(=O)(/N=C(/c1ccc(Cl)cc1)N1CCOCC1)c1ccc(Br)cc1", "% Inhibition @ 10 uM": 2.95}
{"smiles": "O=S(=O)(c1ccc(Cl)cc1)N(CCCO)CC(O)Cn1c2ccccc2c2ccccc21", "note": "(stereo not drawn)", "% Inhibition @ 10 uM": 7.76}
{"smiles": "OC1CCN(Cc2ccc3c(c2)OCO3)CC1", "% Inhibition @ 10 uM": -0.192}
{"smiles": "CC(C)c1ccc(C2CC(c3c(F)cccc3Cl)n3ncnc3N2)cc1", "note": "(stereo not drawn)", "% Inhibition @ 10 uM": -3.23}
{"smiles": "COc1cc(/C=C2/SC(Nc3ccccc3)=NC2=O)cc(OC)c1", "% Inhibition @ 10 uM": -23.1}
{"smiles": "COc1ccc(NC(=O)NCc2ccccn2)cc1", "% Inhibition @ 10 uM": -14.4}
{"smiles": "O=C(CN1C(=O)S/C(=C\\c2ccccn2)C1=O)Nc1ccccc1", "% Inhibition @ 10 uM": -1.22}
{"smiles": "COc1ccc(C(=O)Nc2ccccc2Cl)c(OC)c1", "% Inhibition @ 10 uM": -1.52}
{"smiles": "O=C(C1CCCC1)N1CCN(C(c2ccccc2)c2ccccc2)CC1", "% Inhibition @ 10 uM": 0.795}
{"smiles": "CCOC(=O)c1c(-c2ccc(Cl)cc2)nn2c1NCN(Cc1ccc3c(c1)OCO3)C2", "% Inhibition @ 10 uM": -4.74}
{"smiles": "N#CCNC(=O)[C@H](CCc1c(F)cccc1F)NC(=O)OCc1ccccc1", "% Inhibition @ 10 uM": 1.61}
{"smiles": "Cc1cccc2cc(-c3nc4cc(C(=O)O)ccc4[nH]3)c(=O)oc12", "% Inhibition @ 10 uM": 1.64}
{"smiles": "COc1ccc(/C=C2/NC(=S)NC2=O)c2ccccc12", "% Inhibition @ 10 uM": -9.52}
{"smiles": "Cc1ccc2oc3c(c(=O)c2c1)C(c1ccc(O)cc1)N(c1nccs1)C3=O", "note": "(stereo not drawn)", "% Inhibition @ 10 uM": -1.33}
{"smiles": "COc1ccc2ccccc2c1/C=C/c1ccncc1", "% Inhibition @ 10 uM": -0.268}
{"smiles": "COc1cc(Cl)ccc1S(=O)(=O)N1CCN(c2cccc(Cl)c2)CC1", "% Inhibition @ 10 uM": -1.84}
{"smiles": "CC(C)C[C@H](NC(=O)c1ccc(B2OC(C)(C)C(C)(C)O2)cc1)C(=O)NCC#N", "% Inhibition @ 10 uM": -5.2}
{"smiles": "CCc1nnc(NC(=O)CSc2ccc(-c3cccs3)nn2)s1", "% Inhibition @ 10 uM": 8.53}
{"smiles": "COCCNC(=O)Cn1ncc2c(Cl)cccc21", "% Inhibition @ 10 uM": 0.596}
{"smiles": "NC(=O)c1cc(-c2cccs2)nc2ccccc12", "% Inhibition @ 10 uM": 0.219}
{"smiles": "O=C(NCC1CCCO1)C(Sc1ccccc1)c1ccccc1", "note": "(stereo not drawn)", "% Inhibition @ 10 uM": 1.37}
{"smiles": "COc1ccc(C(=O)N2CCc3cc(OC)c(OC)cc3C2C)c(OC)c1", "note": "(stereo not drawn)", "% Inhibition @ 10 uM": -2.65}
{"smiles": "CNc1nc(SC(C)C(=O)Nc2ccc(Cl)c(Cl)c2)nc(N2CCOCC2)n1", "note": "(stereo not drawn)", "% Inhibition @ 10 uM": -2.37}
{"smiles": "C=CCO/C(O)=C1\\C(C)=Nc2nnnn2C1c1cccc(OC)c1", "note": "(stereo not drawn)", "% Inhibition @ 10 uM": 3.32}
{"smiles": "CCOC(=O)C1=C(C)NC(=O)NC1c1ccc(F)c(F)c1", "note": "(stereo not drawn)", "% Inhibition @ 10 uM": 1.72}
{"smiles": "Cc1ccc(C(C)C)c(Oc2nc3ccccn3c(=O)c2/C=C(\\C#N)C(=O)NCCCOC(C)C)c1", "% Inhibition @ 10 uM": 0.315}
{"smiles": "COC(=O)c1cc(S(=O)(=O)N(C)CC2COc3ccccc3O2)c[nH]1", "note": "(stereo not drawn)", "% Inhibition @ 10 uM": -9.47}
{"smiles": "Cc1ccc(S(=O)(=O)N(CC(=O)NC2CC3CCC2C3)c2ccc(Cl)cc2)cc1", "note": "(stereo not drawn)", "% Inhibition @ 10 uM": -0.695}
{"smiles": "COc1cccc(CN2CCN(c3ccccc3OC)CC2)c1", "% Inhibition @ 10 uM": 6.18}
{"smiles": "COc1cccc(N2C(=O)NC(=O)C(CCc3ccncc3)(CCc3ccncc3)C2=O)c1", "% Inhibition @ 10 uM": 2.42}
{"smiles": "CCOc1ccc(CN(C(=O)c2nc(SCC)ncc2Cl)C2CCS(=O)(=O)C2)cc1", "note": "(stereo not drawn)", "% Inhibition @ 10 uM": 6.76}
{"smiles": "Cc1cccc(-n2c(Cc3cccn3C)nnc2SCC(N)=O)c1C", "% Inhibition @ 10 uM": 2.12}
{"smiles": "COCCNc1nn2c(=O)c3c(C)c(C)sc3nc2c2ccccc12", "% Inhibition @ 10 uM": 6.03}
{"smiles": "COc1ccc(CN2CCN(Cc3ccccc3Cl)CC2)c(OC)c1", "% Inhibition @ 10 uM": -1.36}
{"smiles": "CC(C(=O)N1CCC2(CC1)OCCO2)n1ncn2cccc2c1=O", "note": "(stereo not drawn)", "% Inhibition @ 10 uM": -7.52}
{"smiles": "COc1ccc(S(=O)(=O)N2CCN(Cc3ccc4c(c3)OCO4)CC2)cc1C", "% Inhibition @ 10 uM": 1.74}
{"smiles": "CCOC(=O)NC12CC3CC(CC(CC)(C3)C1)C2", "% Inhibition @ 10 uM": -3.27}
{"smiles": "CCOC(=O)N1CCN(Cc2c(F)cccc2F)CC1", "% Inhibition @ 10 uM": -1.78}
{"smiles": "Cc1ccc(C(=O)c2cn(C)c3nc(C)ccc3c2=O)cc1", "% Inhibition @ 10 uM": -3.85}
{"smiles": "CS(=O)(=O)Nc1ccccc1C(=O)NCc1ccco1", "% Inhibition @ 10 uM": 1.27}
{"smiles": "C=CCN1C(=O)C(CC(=O)Nc2cccc(C)c2)S/C1=N\\c1ccc(C(C)=O)cc1", "note": "(stereo not drawn)", "% Inhibition @ 10 uM": -0.795}
{"smiles": "CCOCCN1CCN(C2c3ccccc3CSc3ccccc32)CC1", "note": "(stereo not drawn)", "% Inhibition @ 10 uM": 3.53}
{"smiles": "COC(=O)C1=C(C)NC(=O)/C1=C\\c1ccccc1", "% Inhibition @ 10 uM": 1.57}
{"smiles": "CCCc1cc(O)c2c(O)n(-c3ccccc3)nc2n1", "% Inhibition @ 10 uM": -3.33}
{"smiles": "CC(=O)C1C2CC(S)=NC1(C)Oc1ccc(Br)cc12", "note": "(stereo not drawn)", "% Inhibition @ 10 uM": -1.8}
{"smiles": "CCOc1ccccc1CNCc1cccnc1", "% Inhibition @ 10 uM": -3.95}
{"smiles": "COc1ccc(OC)c(CNCCc2ccccc2)c1", "% Inhibition @ 10 uM": 0.661}
{"smiles": "COc1cc2nc(SCc3cc(=O)n4ccccc4n3)n3nc(-c4ccccc4)nc3c2cc1OC", "% Inhibition @ 10 uM": -2.29}
{"smiles": "CN(CC(=O)NCCCc1ccccc1)S(=O)(=O)c1c[nH]cn1", "% Inhibition @ 10 uM": -3.53}
{"smiles": "N#CCNC(=O)[C@@H](Cc1c(F)cccc1F)NC(=O)OCc1ccccc1", "% Inhibition @ 10 uM": -3.14}
{"smiles": "Cc1nn(-c2ccccc2)c(N)c1-c1ccccc1", "% Inhibition @ 10 uM": 2.22}
{"smiles": "CCOc1ccccc1CNC(=O)c1noc2c1CCc1sccc1-2", "% Inhibition @ 10 uM": -0.12}
{"smiles": "CSc1ccc(S(=O)(=O)NCc2cccnc2)cc1", "% Inhibition @ 10 uM": -8.72}
{"smiles": "COC(=O)c1ccccc1S(=O)(=O)N(CCCN1CCOCC1)Cc1cccs1", "% Inhibition @ 10 uM": -3.12}
{"smiles": "CCN(CC)CCn1cnc2c1c(=O)[nH]c(=O)n2Cc1ccccc1", "% Inhibition @ 10 uM": -1.22}
{"smiles": "Sc1nc(NCCc2ccccc2Cl)c2ccccc2n1", "% Inhibition @ 10 uM": 5.74}
{"smiles": "Cc1cccc(-c2nc3sc(C)cc3c(=O)o2)c1", "% Inhibition @ 10 uM": -5.15}
{"smiles": "CCc1cc(C(=O)O)c(NC(=O)/C=C/c2ccc(OC)cc2)s1", "% Inhibition @ 10 uM": -2.26}
{"smiles": "Cc1ccc(CN2CCN(Cc3ccco3)CC2)cc1", "% Inhibition @ 10 uM": -1.55}
{"smiles": "N#CC1=C(N)Oc2[nH]nc(-c3ccccc3)c2C12C(=O)Nc1ccc(Cl)cc12", "note": "(stereo not drawn)", "% Inhibition @ 10 uM": 0.746}
